Measured values: the supplement of paper PMC10126150
Values marked as one replicate rest on one cluster of the flow cell; about a third of the high ones do not repeat.

System: ATP
Test: switch fluorescence ratio, 500 uM ATP over buffer (Cy3 cluster intensity, sum of 5 cycles each) (fold (ratio)); higher = stronger signal-on switching upon ATP binding; sequences stand for … in TCGTCGGCAGCGTCAGATGTGTATAAGAGACAGTTTTTTTTTTTTTTTTTTTTTTTTT…TC
Conditions: aptamer strand: ATP DNA aptamer (quencher-CACCTGGGGGAGTATTGCGGAGGAAGG + anchor), 100 nM annealed; ATP concentration: 500 uM; one replicate
In short: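 Exposure to 500 uM ATP lasted 15 min at 22 °C before imaging, and a selection-buffer image was taken beforehand, for Cy3-labelled switching-strand clusters on a modified Illumina MiSeq flow-cell annealed to 100 nM quencher-labelled ATP aptamer. Five buffer/ATP cycles were run with NaOH stripping and re-annealing between them. The fluorescence ratio per cluster is summed target-cycle over summed buffer-cycle Cy3 intensity, averaged per switch-domain sequence. Clusters outside 100-1000 RFU were excluded.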

Sequence	switch fluorescence ratio
CGGTTATTC	1.04
AGTTTGTAAA	0.986
AGCGCATGTA	0.987
GGGCGACATC	1.17
TCCGGGTAAG	0.96
GGGATCTATT	0.967
GAAGTAAGGT	0.993
AGTTTGAGTG	0.963
GCCTTTCTTG	1.1
GAAGTATTTA	1.05
TGACAAAGAT	1.01
GGCCGGGTAT	0.981
TTCGATGTAC	1.41
AAATGGGTC	0.986
CCCTTCCCG	1.51
AAAAATTCGC	0.975
AGCTGACGAA	1.13
AGTAACTCAC	1.15
CTCATGGGTG	1.25
AAGCTAGAAC	1.01
TCCCATTAAT	1.02
CTGTGACCCC	1.1
ACGCACTATC	1.62
GGAACATTAA	0.994
TGTCGTTAGC	0.882
CTTTTGTGAA	0.967

Sequence	switch fluorescence ratio
CATACTAAAG	1.07
TTATGGCAGC	1.02
CCTATGCTCC	2.72
TTAACCGCAC	2.55
CACCTATAGC	1.05
GGCGGAGGCA	0.962
CCCGGGCATG	1.03
ATCGGCCGA	1.01
TTTTGGGAC	1.03
GACGTTGCG	0.982
CTACGAAAAC	1.52
CAACTTGTGC	0.997
GCTCGTAAGG	0.95
ACGCTGCGAC	1.71
AATGCAGTTA	0.993
AAGGATTCTT	0.985
ATATTGATAC	1.02
AGAAGTTCGT	1.01
ATCCCTAGCG	1.05
GCATAATGTC	1.08
TCTAAATCGG	1.03
ATGTAGGCGA	1.01
ATGGATTCTT	1.01
CGTCATGACC	1.05
CAAGAAGATA	0.962
TGTAATGTGC	0.979

Sequence	switch fluorescence ratio
ATAGCAAAGC	1.09
GATATCCTAT	1.02
CCGAGGTCTT	1.37
TACGTTAGGA	0.996
GCGGACGCTT	1.02
TTAGGTAGTA	0.952
TTCTACTTTA	1.11
TTTAGACAGG	0.96
CGGGCTCGCG	0.978
ATTGGTTGCT	0.994
GGGTACTGTT	1
CACATTGTT	0.969
CTAGTCCCCG	1.01
CATTACCTTT	0.978
TTATTTTAAT	0.965
GTCATTCGGA	1.03
TGAATGCCTG	1.03
GGTCTGTTTA	0.978
CACTATAAGT	0.986
TCGGAGGCAT	1.38
GGACTGCCGG	0.974
TTGGTGTAAT	1.01
CTGCGCCACA	1.1
ACCGGTGCCA	1.02
ATCTAACGTT	1.04
TCATAGGCGG	0.959

Sequence	switch fluorescence ratio
GTGGCAGTAG	1.04
GCCCAATGGA	0.993
TTCACTACTC	1.18
TGTTATGTTG	0.961
CGATCGGGAA	1.02
GGTAATGGCC	1.01
CCCCCTGAAC	1.67
CGCTAGTTC	1.17
TCCTGTGGGC	1.03
GGACTAGGAT	1.02
CAGGCATGC	1.07
TACGCTTG	0.998
AGAGATTCGT	1
GTATAATGGA	1.01
GGCAAACCG	1.03
CATCGGACCT	1.42
TTCGCAGGGG	3.04
TATCTTGTGG	0.99
GTGTAACGCT	0.982
AACTGTACT	1.57
CAATCCATCG	0.996
TTTCTATTC	1
TCCCGTATGA	1.03
GGTCTAAGTT	0.933
AGACGTAGAC	1.08
TCATAAAGTC	0.995

Sequence	switch fluorescence ratio
GATTCTGCAC	1.15
CTCAATGGGC	1.07
AGTTAGAAGT	0.986
ACATTCGAAA	1.03
CGAGAGTCCG	0.995
TAAATGAGCG	0.965
TCATGCAGGG	1.02
TCGCTAAAGA	1.03
GTGGTGACAC	0.957
CGACTGATTC	1.08
CTACCCTCTG	1.07
CAGCAAAACG	2.2
GACAGCAT	1.11
AATCCACATT	1.07
TGACGAGAGC	1.06
TTGAAAGTCC	1.31
ATAGACCGTG	0.982
AGGTGTTGTT	1.01
GTTTGTTCTG	0.972
GAACTTCGCT	1.06
GTTCTCCAGG	2.04
TGGTGCCTTA	0.977
AATGCATTTA	0.978
GCGATACCGG	1.15
GACATACAGC	1.32
AACGGCACCT	1.61

Sequence	switch fluorescence ratio
TAGAGAAAGC	1.02
TTTCGTGAAG	1
GCAGCATGAT	1.22
ATAATGGTCG	1.05
TCGGAGCTCC	1.08
CACAGTGCGC	1.07
ACTGGACTGG	1.05
TCTGCCAGGC	1.12
GACGGTGTTG	0.987
ACCGGTCTGT	1
ATCGGGGTAC	1.03
CCCCCTGTGT	2.83
TAGATAAGTA	1.02
AAGTAGCTCT	1.01
AAACGGGAAA	1.07
ACTAGGCTTC	1.04
GTTTATGCTA	1.05
AACGGCC	1.05
CCTTCGTATT	4.09
TATCTACCAG	1.02
ATTCTGAGTT	0.995
TTGAGGTATC	0.966
GGGAGTGTTG	0.952
